Over roughly 81,000 sequences, “one-hybrid fitness for binding parS DNA” has its median near -0.17; the highest 2% begin near 0.51. The list shows a part of the results.
B1: Caulobacter ParB omega fusion; a variant is named by its letters at X, in order, B8GW30 (parent)
chain: MESVVVGEPGMSEGRRGLGRGLSALLGEVDAAPAQAPGEQLGGSREAPIEILQRNPDQPRRTFREEDLEDLSNSIREKGVLQPILVRPSPDTAGEYQIVAGERAWRAAQRAGLKTVPIMVRELDDLAVLEIGIIENVQRADLNVLEEALSYKVLMEKFERTQENIAQTIGKSXSHVANXMRLLXLPDEVQSYLVSGELTAXHARAIAAAADPVALAKQIIEGGLSVRETEALARKAPNLSAGKSKGGRPPRVKDTDTQALESDLSSVLGLDVSIDHRGSTGTLTITYATLEQLDDLCNRLTRGI

Variants of: B1
Test: one-hybrid fitness for binding parS DNA (scaled: cognate 1, non-cognate 0); higher = stronger binding
Settings: with parS DNA site
Summary of the method: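 Caulobacter ParB libraries with four specificity codons randomised were screened by bacterial one-hybrid selection in the E. coli USO strain, using a HIS3 reporter whose site lies 19 bp from the promoter. Selection ran for 48 hours at 37°C on M9 lacking histidine, with 0.1 mM IPTG and 5 mM 3-AT. Plasmids were Illumina-sequenced before and after selection, three replicate libraries were pooled, and variants with under 10 reads were dropped. Fitness is the log change in each variant's read ratio to wild type, rescaled against the cognate and non-cognate sites.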

| Variant | one-hybrid fitness for binding parS DNA |
| --- | --- |
| PRFM | ≤ 0.2 |
| QNTH | ≤ 0.2 |
| ATQT | ≤ 0.2 |
| WLKS | ≤ 0.2 |
| YYTF | ≤ 0.2 |
| EPSA | ≤ 0.2 |
| HARH | ≤ 0.2 |
| GQYS | ≤ 0.2 |
| QGHI | ≤ 0.2 |
| TASV | ≤ 0.2 |
| DYNV | ≤ 0.2 |
| WFCT | ≤ 0.2 |
| SRGF | ≤ 0.2 |
| RVSS | 0.975 |
| YTRT | ≤ 0.2 |
| REMT | ≤ 0.2 |
| PLNE | ≤ 0.2 |
| LDLF | ≤ 0.2 |
| ARRE | ≤ 0.2 |
| QLFV | ≤ 0.2 |
| KCRT | ≤ 0.2 |
| ACAI | ≤ 0.2 |
| LFMR | ≤ 0.2 |
| GHCH | ≤ 0.2 |
| KILI | ≤ 0.2 |

| Variant | one-hybrid fitness for binding parS DNA |
| --- | --- |
| DSSF | ≤ 0.2 |
| ALFF | ≤ 0.2 |
| WEAS | ≤ 0.2 |
| AFTG | ≤ 0.2 |
| RDKP | ≤ 0.2 |
| SEQD | ≤ 0.2 |
| KRYP | ≤ 0.2 |
| YPSS | ≤ 0.2 |
| MHHG | ≤ 0.2 |
| IPPA | ≤ 0.2 |
| TTNR | ≤ 0.2 |
| RCND | ≤ 0.2 |
| SDQI | ≤ 0.2 |
| QSGM | ≤ 0.2 |
| HSFC | ≤ 0.2 |
| RLPW | ≤ 0.2 |
| EVPA | ≤ 0.2 |
| RRHE | ≤ 0.2 |
| THHG | ≤ 0.2 |
| CNKR | ≤ 0.2 |
| EAKR | ≤ 0.2 |
| ICWS | ≤ 0.2 |
| RASM | 0.326 |
| NVVG | ≤ 0.2 |
| LMMM | ≤ 0.2 |

| Variant | one-hybrid fitness for binding parS DNA |
| --- | --- |
| SHHR | ≤ 0.2 |
| RQYK | ≤ 0.2 |
| CMGL | ≤ 0.2 |
| IINT | ≤ 0.2 |
| QCGA | ≤ 0.2 |
| RRAD | ≤ 0.2 |
| ATIV | ≤ 0.2 |
| GPSC | ≤ 0.2 |
| LNNR | ≤ 0.2 |
| SNPA | ≤ 0.2 |
| RQTV | ≤ 0.2 |
| SGQH | ≤ 0.2 |
| TVYC | ≤ 0.2 |
| QNST | ≤ 0.2 |
| LDLI | ≤ 0.2 |
| TPPT | ≤ 0.2 |
| KRTS | ≤ 0.2 |
| KKKK | ≤ 0.2 |
| TTGT | ≤ 0.2 |
| EELL | ≤ 0.2 |
| RAYR | ≤ 0.2 |
| KSCC | ≤ 0.2 |
| FDHL | ≤ 0.2 |
| HSYD | ≤ 0.2 |
| RGKM | 0.249 |

| Variant | one-hybrid fitness for binding parS DNA |
| --- | --- |
| HSTK | ≤ 0.2 |
| PNMC | ≤ 0.2 |
| ASNI | ≤ 0.2 |
| TWFT | ≤ 0.2 |
| MDFR | ≤ 0.2 |
| RNMV | ≤ 0.2 |
| PYAL | ≤ 0.2 |
| CGHC | ≤ 0.2 |
| PAML | ≤ 0.2 |
| LTKP | ≤ 0.2 |
| RKYG | 0.952 |
| EKRC | ≤ 0.2 |
| GFIS | ≤ 0.2 |
| HPVE | ≤ 0.2 |
| NVGG | ≤ 0.2 |
| TKTC | ≤ 0.2 |
| SNSD | ≤ 0.2 |
| YTRF | ≤ 0.2 |
| TMDS | ≤ 0.2 |
| ATDL | ≤ 0.2 |
| RLKN | 0.458 |
| SPFM | ≤ 0.2 |

Reference: a collection of fitness landscapes (doi:10.1016/j.celrep.2020.107928)
